From patent US20100286374A1 (Amgen, published 2010) come the findings set out here.

This data set deals with the molecule itself. The data set can be described thus: M315 scFv-Fc homodimer; co-expression with dummy Fc K409D; K392D, SDS-PAGE band density (ND = Not Detectable). An excerpt: FIG. 10. SDS-PAGE analysis of charge residue mutations (listed in Table 6) in addition to D399′K - - - K409D pair mutations. Wild type (first lane) and knobs-into-holes mutations (last lane) are also shown for comparison. 1:2 input DNA ratio of dummy Fc and M315 maxibody was used here.
DNA was transfected into human embryonic kidney cell line 293-6E using Lipofectamine™ 2000 reagent (Invitrogen). The cell culture supernatant was harvested 3-4 days after transfection and analyzed on SDS-PAGE Gels under non-reduced condition. The gel was then transferred to nitrocellulose membrane and subject to western analysis using peroxidase-conjugated goat anti-human IgG antibody (Jackson ImmunoResearch Laboratories) and results are shown in FIG. 10.

B1: M315 scFv-Fc D399′K&E357′K (Fc fusion)
chain: HMAEVQLQQSGAELVKPGSSVKISCKASGYTFANNFMHWIKQQPGNGLEWIGWIYPGDGDTEYNQKFSGKATLTADKSSSTAYMQLNSLTSEDSAVYFCIRLTEGTTYWGQGVMVTVSSGGGGSGGGGSGGGGSQFVLTQPNSVSTNLGSTVKLSCKRSTGNIGSNYVNWYQQHEGRSPTTMIYRDDKRPDGVPDRFSGSIDGSSNSALLTINNVQTEDEADYFCQSYSRGVSPVFGGGTKLTVLAAA[human IgG1 Fc with E357K D399K (EU numbers) left out]
notes: Single scFv-Fc chain; also called D357′K
Take B1: the binding result is “no binding”.
